The list shows a part of the results. At the low end of the ranking the order means little. Measured with an extract: partners may take part in the binding.
biological target: T1, HNF4alpha8 (COS-7 nuclear extract) (UniProt P41235-5); assay: protein-binding microarray; conditions: COS-7 nuclear extract on double-stranded Agilent 4x180k PBM; binding buffer, salt, pH and temperature not given; high values mean tight binding; double strand, one strand shown; sequences stand for … in …GCCTAGGGAGATTAGAGTATCGGTCGA
T1 sequence: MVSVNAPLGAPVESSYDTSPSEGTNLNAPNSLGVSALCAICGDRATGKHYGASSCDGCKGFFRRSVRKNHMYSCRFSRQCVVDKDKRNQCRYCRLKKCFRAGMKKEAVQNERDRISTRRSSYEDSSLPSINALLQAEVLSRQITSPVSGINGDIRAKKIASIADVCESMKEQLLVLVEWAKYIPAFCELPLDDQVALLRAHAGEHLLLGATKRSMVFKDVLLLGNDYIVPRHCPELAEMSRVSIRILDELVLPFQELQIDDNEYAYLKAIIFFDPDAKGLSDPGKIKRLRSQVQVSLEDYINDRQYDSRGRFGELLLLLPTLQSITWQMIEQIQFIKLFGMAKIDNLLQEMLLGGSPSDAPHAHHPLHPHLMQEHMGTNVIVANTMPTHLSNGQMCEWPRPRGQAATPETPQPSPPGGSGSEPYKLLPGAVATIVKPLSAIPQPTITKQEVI

Row | Sequence | binding signal (log2 normalized intensity)
1 | TGGATTCGCCCAGCATAGCACACCAGCTCT | -1.45
2 | CCAGTTATTCATGTCCCTACCACATACAGA | 1.38
3 | GCTATGATTGCGCCACTGCATTCCAGCCTG | -1.26
4 | CAATCCCCCATCTATTTACAAAAGACCAGA | 2.41
5 | CCCTTCTGTCAAGTCCAAAGTTCTTGGCCA | 4.31
6 | CCTGTCACCTCCCTCAGAGCTCAGATGAAC | 0.526
7 | CTTTAAGTAGGCACTATTATCCCCCTATCC | 3.58
8 | GGATTAAAGAATTCGTCCAGGGCCGCCCAA | -1.32
9 | GCTCTGCTACTGACCAGATGTTATTACTTA | 0.449
10 | TAACTGTGCTTCTGGGGTATAAAGGTCAGG | 5.86
11 | GGGTCCTGGCAGCACCTGAAGAATTTGGAC | 1.76
12 | GCGGGGAAAAGGGAGTAAAGGTCACGCAGG | 5
13 | GTTCTGTGGAATTTGTGCTTATTTCCCATC | 1.78
14 | GGCTCCCAGTGGCCCCTGAGCACTGTCTCA | -1.14
15 | GCTGTGATGAGGCCAGCAGGGTGCCCCCTC | 3.81
16 | ATCTCTTTGACACAAAGGGAGGCCTAGACA | -1.32
17 | GCATACGCTAGCTTTCTGGTCTTTGTTCTT | 2.13
18 | AGAGAGCAGGAGCCACCTGTCACTCAATGC | -1.36
19 | CAGAACAGGCTGTTTTCCTATAGATTTGTT | -0.408
20 | TGTTTCCACTCCAGCCTCTCCACCAGGGGA | -1.38
21 | CTGTGAAAATTGGTACTGGACATGGTCTAA | 0.824
22 | AGTCAAAGGTCCCCACCACAAAGGCCAGAG | 2.8
23 | CACAGTATGTTAATGGCAGAATCAAAGGTC | 5.19
24 | CATAAAGGACTTTCAACCCTGTGATGACCC | 4.91
25 | GAGTGGGATGGCCATTGTTCATACTGCAGC | 0.147

Row | Sequence | binding signal (log2 normalized intensity)
26 | CAACACACCTGTGGGTAATTAACTCCCCCT | 3.16
27 | GGGTGGTTCATTTGCACTTGTTTTTTCAGG | 1.49
28 | CTTTCCCTCCACCAAGTTTCCCACACTCAG | 1.35
29 | CTCATGAAGATTCTTTGGTTGGGAATAACA | 0.85
30 | CAGCAGGGTCTTTTTGACCTGTATCTTGTG | 3.15
31 | AATTCCAGGGCTGGGTCCAGGAATGTGCTA | -0.0196
32 | ATCAAGTCCGAACTCACTACAAACGCCTCT | -1.48
33 | GTGCTTCTGGGGTATAAAGGTCAGGGATAG | 4.42
34 | TGGTGTTAAATCCTATCCTAGGGTTAAAGT | 2.93
35 | CCATTTCCCATCCCCAGAGCCCCCTTGATG | 4.92
36 | AAGTGGCAATAAACTCCGTTATCACTCCTG | -1.08
37 | AACCCAGGCAATGACTCCAAAGTTCAAACT | 4.53
38 | CATCTCGTCAAGGTGAAAAGCCTTTTGAAG | 0.289
39 | ACGCCCACTGCTTTGTTCCCTGGCTCACTG | -1.26
40 | GTTAGAACAAAGTCCAAATTCCTAACTATG | 4.38
41 | GTCTGGGAAAGCTGCAGGCATGAGAGGTGC | -1.38
42 | TGGGCGAGCCCTCTGATCTGACCCCTTCTT | 5.31
43 | GACATTCCAGCCTCCAGCTACTCACTCTTC | -1.12
44 | ATGAGGCGGTTCATCCAACAGGTGAGGTGG | -1.28
45 | GGAACACAAAGAAAGCCAAAGTTCACCCTT | 3.16
46 | CAACCGGAAGTGGCTAGAGGTCGCGAGAGA | -1.3
47 | ATATCCTGACTGCTGACCTTTAAGCCTATA | 4.7
48 | TAACCCATCTGGGGAAAGTGCAAGGGCCCA | -1.31
49 | TTTCAACTGCAGGGGGGTGGGCACCCCTGC | -1.35
50 | CAGGTGTAAAGTCTGGCATACAGGGTCCAA | 3.64

Row | Sequence | binding signal (log2 normalized intensity)
51 | GTTAAAGTCCACATTCTTTAGCATATTACA | 1.37
52 | GGGAGTAGGGACAGCTAGTCTAGACTTTGC | 4.14
53 | TCAGGAATCGCATTGCAAAATCCATCTAAA | -1.36
54 | ATGGGCAGTCCCTATAGCCTCACTTGCTGA | -1.35
55 | TGTCCAAGGGTCACTCGACATTCATCATGA | 1.98
56 | GGCACAGGAACCTGTTTTACAGGACATAGT | -1.17
57 | GAGCCTAGGAGTTCAATGCTTCAGTGAGCC | -1.26
58 | GGCTCAGGAGAAGGGCCCATGGGCTTCAGG | -1.32
59 | TACTAATCCTCTTCTGTCCTCCTGTGGCCA | 0.916
60 | GTGAGAACAGAGTCTCCGAGGAACCCAGAC | -1.31
61 | TAAAGGGGATTTTCTCAGCTCTCCTCTGCC | -1
62 | CCACAGGTCAATCCAGGTTGCTGCCTAGTT | -0.138
63 | TGTACACAGTTCAAAGGGCAGACAGGAACA | 3.72
64 | CATTTCTGTATCCCTGTTATCTGGCAGATA | 0.161
65 | GACTTCAAAGGCATTTCTGGACTTGGATCA | 4.28
66 | CTCTCTGTATTCCCTCTCTTCAGAATGGCC | 1.91
67 | TTTAAAAACTTATCTTGTGACCTTTGACTC | 8.96
68 | CCTCTTTGAGTCTGGTGTTCTCTTGGCCAA | 1.63
69 | GAGCACTTTTGGTATGCAAGGCATGGTGCT | -1.33
70 | CAGCTGCGCGGCCTCCCCAGAGGCTGGTCA | -1.14
71 | GGGGAGCGTAAAACCACTGGCCCATTAGAA | -1.25
72 | GGTTTTAGGCTATCAGACAGCCACACTTTA | -0.989
73 | CAGATGGATTGATAGACTTATCTCAGCCTG | -1.31
74 | ACAGCTCCTGAGTCCACATGAGCCTCTTTA | -1.4
75 | TTTGACTGGTGTGAGGTCAGTTGATAAACA | 1.59

Row | Sequence | binding signal (log2 normalized intensity)
76 | CGCCAGGCGGGTTCTGCCATCTCGCAGAAA | -1.33
77 | CCCCCTTTTGCTTTCCGTTAGGCTACAGTG | 0.887
78 | TGTCCTGTGATTAAGGTCAATGGGAAACTA | 1.05
79 | ATCCAAAGGTCAGTGACAAATGTCAGACAA | 3.09
80 | TGTGTTTCCTGGATTGTGAAACACAGGACT | 0.6
81 | CTAATGGAGAGGATGGGGACAAAGGTCAAG | 8.12
82 | TCCCTGTGGTATTTGCTCTGTCATCAACGT | 1.25
83 | GCCTAGGTGACAAGGAAAACTACACTCTTG | -1.33
84 | CAAACTCAATCCTGGCCTCTGAGGTGTTAA | -0.113
85 | TTTGGGTTTGAAGGCTCCGGAAACGTATGA | 0.646
86 | TTCCTGCATTAACATCAACATGGACTTTGA | 9.28
87 | TTGTTCCATGCCACAGAATCGCCCCACCCT | 4.28
88 | CCCCCACCCTGTGTCAGCATCTAAACCTCT | 2.65
89 | TCGCACGGCAGAACTGGTGACCGGACACAA | -1.07
90 | CTGTAACACAGTTGCACTCACTAGCATTAG | -1.22
91 | TTCAAGGTCCAGCCTACCCACCCACACCTC | 3.42
92 | TTCTAACCAATGCAGCTGGGAGATAAGATA | 0.222
93 | TGGCTGCAGAGTGGGAGGCCAAGAGATAAA | -1.31
94 | AGGGATTCCTGAAGATCGCAGACTTTGGAC | 6.44
95 | CCCAAACGAATGGGCAAAACATTCCTAAAC | -1.33
96 | ATATCTTTGTCTCAGGAACTTTGTTTGTGT | 2.36
97 | TGGCAAATATCAGCATGGTATGTGGCTTGC | 0.658
98 | CAGTATAAACAACACAGAACTAGCCAGACC | -1.28
99 | AATTGCTACTTCCGGCGTCGATTAGCTGGG | -0.923
100 | CTCATGCTAAAAGTTGAATTCTTGACTTTG | 0.997

Row | Sequence | binding signal (log2 normalized intensity)
101 | TAACCCCAGTTTAGCAATTTGCTCTCTGCT | 0.105
102 | AGCTATTGCTCTGCATGGATTAGCCAGCTA | -1.27
103 | AAGTGGAGATTTCAGCCGCTTTGAGGTCAA | 2.6
104 | TGCACAACGACCCTTGCTCTGTTTTCTGAC | 2.59
105 | CAGCACTGGGTGGGGATAAGAAAAGATCAA | -1.26
106 | TATGTGGTGGGTGTGGTGATGGCAGGAGTC | 1.45
107 | AATTACCATTCTTGAGGACAGGCCAAATCC | -1.27
108 | GACCTCTGCCCTACTGTATATCCTGACACA | 2.87
109 | AGACATTGGCTAAATCATGGGGAGCATCTA | -1.25
110 | AACTTTGAAACAAGCCCATCTTCCAGAAAA | -1.29
111 | GCTGCAGGAGAGATGGTCAGATTTTATTTA | -1.3
112 | TTAGCTCATTTCAGCCTTAACTCAAAAGGC | -1.03
113 | TTCTGCCTTATCAGCGGCCCTGTGCTGCCC | 0.498
114 | CCCCAGTGTCAATTCTCATTCATCCAAGGA | -0.247
115 | GAGTGCTATCCTCTTATCTGAATGTATGGG | 1.22
116 | TTATTGATTGCCTTTCATGTACTGTTCAGT | 2.05
117 | TTTTAAGAGCCCATCCTTGTTTTGGGGGTT | 1.32
118 | AGCTAACATGTACAGTATTGCGTAAGTTGT | 1.51
119 | AGATCAAACAGGGACAGATGTTTGGTTGAG | 0.0809
120 | GCAGTCCATAAATGCTGTTGATAAAGTGAT | -0.542
121 | ATCAGTGTACCTGTCCCTACTCAATTATCA | -0.023
122 | TGCGCCGCAGCGAATGGTCGCGCCGGGCGC | -1.39
123 | TTATCTTCCATGTATACTTATGTAGAAAGA | 0.707
124 | GTGAAATGCCAGTGGGAAAACAAACTTTCC | -1.2
125 | ATTTACTTACCTTTTCTAATCTCTCTCCCC | 2.48

Row | Sequence | binding signal (log2 normalized intensity)
126 | GAGCAGCCTGGGGTAAAACCAAACTGCAGC | -1.32
127 | AGGTCAAACTATCTGAGGTGGTCCAGGGCC | -0.945
128 | AGAAAGGCAGAAGGTTCCAGGGAACTGTCC | -1.37
129 | ATGCCTTTTCTTTCATGTTGTTTAGTCATG | 2.18
130 | TGGGCAATAAGCATTCTGTTTCCTACTGAC | -1.25
131 | TTTGCTTTTTACCATCTCCAACATGACCAC | 1.93
132 | AGGCAGCCATTGACGGTATGTGAATGCCTG | -1.04
133 | AAACGACTGATTCTCAGGCATCTCTGGGGG | -0.992
134 | CTCCCAAAAGGTATTTTTTGAATGACAGTG | 0.975
135 | ATGAAGCAAGAGTCCAAATTCCTAGCCCTC | 2.14
136 | CGGGTCAGCAGGGCACCGCCTCCACACCCC | 2.22
137 | GAAACGTTTGAATTCTTGCCTATCCCATAG | -1.26
138 | GTGGCTACCTGTGCAGATATTTAACCTTTG | 4.61
139 | TTATGTACCACCGTATTCCTAGCTCCTAGC | -1.11
140 | GGCAACAGTTTTCTGGGATGCCCAAGGAAT | -1.29
141 | CACCTGATTCAATGTCTGGAAGTTCTTCCT | 0.261
142 | CTGCAGTTCAAAGGCAATATCACTTGTTTG | 0.442
143 | ATTCTTTGCCATGACCTTTGAAGCCCAGAA | 5.57
144 | CATTGATCTAACAGGAGGTGGAGCTCAGGA | 0.215
145 | TTCAGGGCAGAAGAGGTTATCACAGGCTTG | -1

Source: paper PMC10726135
